# Experimental data taken from PubChem BioAssay AID1508642 (National Center for Advancing Translational Sciences (NCATS), 2021).
# Hit rate of the full screen: of about 43,000 compounds, about 200 (0.47%) were called active. Roughly 12% stayed inconclusive and do not appear here. Calls come from the whole dose curve; as a rule, active = well fitted cell-killing curve with a large enough effect; inconclusive = small, poorly fitted or top-dose-only effect, or effect the other way; inactive = flat fitted curve, though single readings scatter. This is one part of the list.
# Assay: Cell viability qHTS assay in S16 Pmp22-F2sN cells; note: nearly all actives have a fitted effect of over 65% in size
# Details: S16 Pmp22-F2sN Schwann cells (luciferase reporters placed in the Pmp22 gene) viability, CellTiter-Glo, 24 h; series mostly up to 57.5 µM; activity change, negative = cytotoxicity: at the top concentration
# In short: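 Seed 500-1,000 S16 Pmp22-F2sN cells per well in phenol-red-free DMEM with 10% heat-inactivated FBS; pin-add 23 nL compound; incubate 24 h at 37C; add CellTiter-Glo, wait 15 min protected from light; read luminescence.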
# % is set by controls: 0 for no effect and ±100 for the full control effect.
row,Structure (SMILES),"activity change, negative = cytotoxicity"
1,NC(=O)C1CCN(C(=O)c2cccc(NC(=O)c3nsc4ccccc34)c2)CC1,inactive: 2.36%
2,Cc1noc(-c2ccc(-c3noc(-c4cccc(F)c4)n3)cc2)n1,inactive: -0.52%
3,CSC1=NC2(CCN(C(=O)NC3CCCCC3)CC2)N=C1c1ccc(C)cc1,inactive: -15.4%
4,COc1ccc(N2Cc3cccc(C(=O)Nc4cc(C)cc(C)c4)c3C2=O)cc1,inactive: 4.24%
5,Fc1ccc(CNc2ncnc3onc(-c4ccc(F)cc4)c23)cc1,inactive: 0.868%
6,CCc1c(CN2CCN(c3cccc(C)c3C)CC2)csc1C,inactive: 13%
7,CCc1cccc(C)c1Nc1c(-c2ccccc2)nc2sccn12,inactive: 0.865%
8,O=C(C1COc2ccccc2O1)N(Cc1cccnc1)c1nc2ccc(Cl)cc2s1 (stereo not drawn),inactive: 2.85%
9,Cc1ccc(C#N)c(=O)n1CC(=O)Nc1ccccc1C(F)(F)F,inactive: -2.79%
10,Cn1c(=O)c2c(nc(SCC(=O)Nc3ccccc3)n2Cc2ccccc2F)n(C)c1=O,inactive: 7.8%
11,CCN(CC)S(=O)(=O)c1nnc(NC(=O)COc2ccccc2F)s1,inactive: 3.01%
12,Nc1c(C(=O)Nc2ccc(OC(F)(F)F)cc2)nnn1Cc1ccccc1,inactive: -0.0786%
13,CCOc1ccc(CNC(=O)CSc2cc(=O)n(CC)c3ccccc23)cc1,inactive: -5.92%
14,CCOc1ccccc1NC(=O)C(CC(C)C)NS(=O)(=O)c1ccc2c(c1)oc(=O)n2C (stereo not drawn),inactive: -4.8%
15,COC(=O)c1c(SC)nc2ccccc2c1OCc1ccc(Cl)cc1,inactive: -27.6%
16,Clc1ccc2c(c1)NC(c1ccncc1)=NC(c1cccs1)=N2,inactive: 1.38%
17,O=C(COCc1cc(-c2ccc3c(c2)OCO3)on1)N1CCN(c2cccc(Cl)c2)CC1,inactive: 4.12%
18,Cc1ccc(S(=O)(=O)N(Cc2nc(-c3cccc(C)c3)no2)C2CCCCC2)cc1,inactive: -29.7%
19,O=c1cc(-c2ccccc2)nc(SCc2nc(-c3ccc(Cl)cc3)no2)[nH]1,inactive: -0.547%
20,CNS(=O)(=O)c1cn(CC(=O)N2CCN(c3cccc(C)c3C)CC2)cc1S(=O)(=O)NC,inactive: 1.76%
21,CCN1CCN(C(=O)c2cnn(-c3cccc(Cl)c3)c2C2CCN(C(=O)OC(C)(C)C)CC2)CC1,inactive: 13.6%
22,Cc1ccc2oc(-c3ccc(C)c(NC(=O)c4ccc(N5CCC(C)CC5)c([N+](=O)[O-])c4)c3)nc2c1,inactive: 1.79%
23,O=C(CCCN1C(=O)C(c2ccccc2)Oc2cccnc21)Nc1ccccc1C(F)(F)F (stereo not drawn),inactive: 19.4%
24,CCCn1c(CNC(=O)c2ccc(F)cc2)nc2ccccc21,inactive: -2.11%

row,Structure (SMILES),"activity change, negative = cytotoxicity"
1,CC(C)CN(CCCNC(=O)CN1N=C(c2ccc(Cl)cc2)CCC1=O)CC(C)C,inactive: 18.6%
2,O=c1c2cc3c(cc2n(Cc2ccc(F)cc2)c(=O)n1Cc1nc(-c2ccccc2)no1)OCO3,inactive: 13.7%
3,Cc1cccc(NC(=O)c2ccc3snnc3c2)c1C,inactive: 1.76%
4,CCOC(=O)CNC(=O)Nc1cc(C(=O)NCc2ccccc2OC)ccc1N1CCCC1,inactive: -0.786%
5,Cc1ccccc1C(=O)NC1(C(F)(F)F)N=C(c2ccccc2)N(C2CCCCC2)C1=O (stereo not drawn),inactive: -2.61%
6,CCOc1ccccc1CNC(=O)c1c(C)oc2ncnc(N3CCOCC3)c12,inactive: 5.65%
7,CCOc1ccc(NC(=O)CSc2ccc(-c3sc(-c4ccccc4)nc3C)nn2)cc1,inactive: 2.7%
8,CCC(Oc1ccccc1F)C(=O)N1CCC(c2nc3ccccc3s2)CC1 (stereo not drawn),inactive: 1.54%
9,CCOc1ccc(NC(=O)C2CCCN(c3ccc(Sc4ccc(C)cc4)nn3)C2)cc1 (stereo not drawn),inactive: 17.8%
10,COC(=O)C(CCSC)NC(=O)c1cc2c(n(-c3ccc(Cl)cc3)c1=O)CCCC2=O (stereo not drawn),inactive: 19.8%
11,O=C(NC(=O)c1ccccc1)Nc1ccc(-c2cc(C(F)(F)F)nn2-c2ccccc2)cc1,inactive: 1.07%
12,COc1ccc(Cl)cc1NC(=O)C1CCCN(c2ncnc3onc(C)c23)C1 (stereo not drawn),inactive: -3.14%
13,COc1ccc(Cl)cc1NC(=O)c1cn(C2CCCCC2)c(=O)c2c1c1ccccc1n2C,inactive: -2.19%
14,CCOc1ccc(Nc2nc3cc(Cl)c(Cl)cc3nc2-n2nc(C)cc2C)cc1,inactive: 4.48%
15,Cc1c(C(=O)N(Cc2ccc(N(C)C)cc2)CC2CCCO2)oc2ccc(Cl)cc12 (stereo not drawn),inactive: -0.463%
16,COc1ccc(N2CCN(c3csc4ccc(Cl)cc4c3=O)CC2)cc1,inactive: 6.6%
17,COc1ccccc1CCNC(=O)C1CCN(c2nnc(-n3cccc3CNc3ccc(C)cc3)s2)CC1,inactive: -20%
18,CCc1ccccc1Nc1nn2c(=O)c3ccc(C(=O)NCc4ccccc4OC)cc3nc2s1,inactive: -4.47%
19,CCOc1ccc(Nc2ncnc3c2nc2n3CCCC2)cc1,inactive: -2.5%
20,COc1ccccc1Cn1cc(C(=O)c2ccc(C)cc2)c(=O)c2cc(C)ccc21,inactive: 2.78%
21,Cc1ccc(-n2nc(CO)c(C(=O)NCCCc3ccccc3)n2)cc1C,inactive: -3.66%
22,COc1ccc(CNC(=O)c2cc(-c3ccc(C)cc3)nc3n[nH]c(-c4ccc(Br)cc4)c23)cc1,inactive: 3.62%
23,Cc1ccc(C)c(S(=O)(=O)c2nnn3c2nc(NC(C)C)c2sccc23)c1,inactive: -29.7%
24,NS(=O)(=O)c1ccc(NC(=O)CN2C(=O)COc3ccc(Cl)cc32)cc1,inactive: -19.8%
